According to the supplement of paper PMC7125110:
Variants at the floor of the assay are shown more often than the library holds them.

B1: glmS ribozyme (parent)
chain: AUAAAAGCGCCAGAACUACAGAAAUGUAGUUGACGAGGAGGAGGUUUAUCGAAUUUUCGGCGGAUGCCUCCAAA

Tests used:
Conditions in all cases: with glucosamine-6-phosphate
glucosamine-6-phosphate [1] = variants of: B1; experiment: kcat; higher = faster cleavage; RNA array
Procedure, shortened: (§1)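 Barcoded ribozyme variants, transcribed in situ by E. coli RNA polymerase on sequenced MiSeq chips, were followed via a hybridised Cy3 probe at 37 °C. Glucosamine-6-phosphate ranged from 40 μM to 10 mM in HEPES/KCl/Mg(OAc)2 buffer. kobs came from decay fits to per-tile medians, and kcat and KM from weighted Michaelis–Menten fits.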

glucosamine-6-phosphate [2] = variants of: B1; experiment: self-cleavage kobs at 40 uM GlcN6P; higher = faster cleavage; RNA array
Procedure, shortened: as §1

glucosamine-6-phosphate [3] = variants of: B1; experiment: self-cleavage kobs at 640 uM GlcN6P; higher = faster cleavage; RNA array
Procedure, shortened: as §1

glucosamine-6-phosphate [4] = variants of: B1; experiment: self-cleavage kobs at 160 uM GlcN6P; higher = faster cleavage; RNA array
Procedure, shortened: as §1

glucosamine-6-phosphate [5] = variants of: B1; experiment: self-cleavage kobs at 10000 uM GlcN6P; higher = faster cleavage; RNA array
Procedure, shortened: as §1

glucosamine-6-phosphate [6] = variants of: B1; experiment: self-cleavage kobs at 2500 uM GlcN6P; higher = faster cleavage; RNA array
Procedure, shortened: as §1

Variant | kcat (glucosamine-6-phosphate [1]) [s⁻¹] | self-cleavage kobs at 40 uM GlcN6P (glucosamine-6-phosphate [2]) [s⁻¹] | self-cleavage kobs at 640 uM GlcN6P (glucosamine-6-phosphate [3]) [s⁻¹] | self-cleavage kobs at 160 uM GlcN6P (glucosamine-6-phosphate [4]) [s⁻¹] | self-cleavage kobs at 10000 uM GlcN6P (glucosamine-6-phosphate [5]) [s⁻¹] | self-cleavage kobs at 2500 uM GlcN6P (glucosamine-6-phosphate [6]) [s⁻¹]
AUAAAAGCGCCAAAACUACAGAAAUGUAGUUGACGAGGAGGCGGUUUAUCGAAUUUUCGGCGGAUGCCUCCAAA [G13A A42C] | < 1e-05 | < 1e-05 | < 1e-05 | < 1e-05 | < 1e-05 | 
AUAAAAGCGCCAGAAUUACAGAAAUGUAGUUGACGAGGAGGAGGAUUAUCGAAUUUUCUGCGGAUGCUUCCAAA [C16U U45A G59U C68U] | < 1e-05 | < 1e-05 |  |  |  | 
AUAAAAGCGCCAGAACUACAGAAAUGUAGUUCACGCGGAGGAGGUUUAUCGAAUUUUCGGCGGAUGCCUCCAAA [G32C A36C] | < 1e-05 |  |  | < 1e-05 |  | 
AUAAAAUCGCCAGAACUACAGAAAUGUAGUUGACGAGGAGGAGGUUUGUGGAAUUUUCGGCGGAUGCCUCCAAA [G7U A48G C50G] | < 1e-05 |  |  | < 1e-05 |  | 
AUAAAAGCGCCAGACCUACAGAAAUGUAGUUGACGAGCAGGAGGUUUAUCGAAUUUUCGGCGGAUGCCUCCAAA [A15C G38C] | < 1e-05 |  |  |  | < 1e-05 | < 1e-05
AUAAAAGCGCCAGACCUACAGAAAUGUAGUUGACGAGUAGGAGGUUUAUCGAAUUUUCGGCGGAUGCCUCCAAA [A15C G38U] | < 1e-05 |  |  |  | < 1e-05 | 
AUAAAAGCGCGAGAACUACAGAAAUGUAGUUGACGAGGAGGAGGUUUAUCGAAUUUUCGGCGAAUGCCUCCAAA [C11G G63A] | < 1e-05 |  | < 1e-05 | < 1e-05 |  | 
AUAAAAGCGCCAGAACUACAGAAAUGUAGCUGACGAGGAGGAGGUUUAUCUAAUUUUCGGCGGAUGCCUCCAAA [U30C G51U] | < 1e-05 | < 1e-05 |  |  | < 1e-05 | 
AUAAAAACGCCAGAAAUACAGAAAUGUAGUUGACGAGGAGGAGGUUUAUCGAAUUUUCGGCGGAUGCCUCCAAA [G7A C16A] | < 1e-05 | < 1e-05 |  | < 1e-05 | < 1e-05 | 
AUAAAAGCACCAGAACUACAGAAAUGUAGUUGACGAGGAGGAGGUUUAUCGAAUUUUCGGCGGAUGGCUCCAAA [G9A C67G] | < 1e-05 | < 1e-05 |  |  | < 1e-05 | 
AUAAACGCGCCAGGACUACAGAAAUGUAGUUGACGAGGAGGAGGUUUAUCGAAUUUUUGGCGGAUGCCUCAAAA [A6C A14G C58U C71A] | < 1e-05 |  |  | < 1e-05 |  | 
AUAAAAGCGUCGGAACUACAGAAAUGUAGUUGACGAGGAGGAGGUUUAUCGUAUUUUCGGCGGAUGCCUCCAAA [C10U A12G A52U] | < 1e-05 | < 1e-05 | < 1e-05 |  | < 1e-05 | < 1e-05
AUAAAAGCGCCAGAACUACAGAAAUGUAGUUUACGAGGAGGAGGUUUAUCGAAUUUUCGGCGGAUGCAUCCAAA [G32U C68A] | < 1e-05 |  |  |  |  | 
AUAAAAGCGCCAGAACUACAGAAAUGUAGUUGGCGAGGAGGAGGUUUAUCCAAUUUUCGGCGGAUGCCUCCAAA [A33G G51C] | < 1e-05 |  |  |  | < 1e-05 | 
AUAAAAGCGCGAGAACUACAGAAAUGUAGUUGACGCGGAGGAGGUUUAUCGAAUUUUCGGCGGAUGCCUCCAAA [C11G A36C] | < 1e-05 | < 1e-05 |  |  | < 1e-05 | 
AUAAAAGCGCCAGCACUACAGAAAUGUAGUUGACGUGGAGGAGGUUUAUCGAAUUUUCGGCGGAUGCCUCCAAA [A14C A36U] | < 1e-05 |  |  |  | < 1e-05 | < 1e-05
AUAAAAGUGCCAGAACUACAGAAAUGUAGUUGACAAGGAGGAGGUUUAUCGAAUUUUCGGCGGAUGCCUCCAAA [C8U G35A] | < 1e-05 | < 1e-05 | < 1e-05 | < 1e-05 |  | 
AUAAAAGCGCUAGAACUACAGAAAUGUAGUUGACGAGGAGGAGGUUUAUCGAAUUUUCGGCGGAUGCAUCCAAA [C11U C68A] | < 1e-05 | < 1e-05 |  |  | < 1e-05 | 
AUAAAAGCGCCAGAACUACAGAAAUGUAGUUGGCGAGGAGGAGGUUUAUCGAAUUUUCCGCGGAUGCCGCCAAA [A33G G59C U69G] | < 1e-05 |  |  |  | < 1e-05 | 
AUAAAAGCGCCAGAACUACAGAAAUGUAUUUGACGAGGAGGAGGUUUAUCUAAUUUUCGGCGGAUGCCUCCAAA [G29U G51U] | < 1e-05 | < 1e-05 | < 1e-05 | < 1e-05 |  | < 1e-05
AUAAAAGCGCCAGAACUACAGAAAUGUAGUCGACGCGGAGGAGGUUUAUCGAAUUUUCGGCGGAUGCCUCCAAA [U31C A36C] | < 1e-05 |  |  |  |  | 
AUAAAAGUGCCAGAACUACAGAAAUGUAGUUGACGACGAGGGGGUUUAUCGAAUUUAAGGCGGAUGCUUCAAAA [C8U G37C A42G U57A C58A C68U C71A] | < 1e-05 |  |  |  |  | < 1e-05
AUAAAAGCGCCAGAAGUACAGAAAUGUAGUUGACGACGAGGAGGUUUAUCGAAUUUUCGGCGGAUGCCUCCAAA [C16G G37C] | < 1e-05 | < 1e-05 |  |  |  | 
AUAAAUGCGCCAAAACUACAGAAAUGUAGUUGACGAGGAGGAGGUUUAUCGAAUUUUCGGCGGAUGCCUCCAAA [A6U G13A] | < 1e-05 |  | < 1e-05 |  |  | 
AUAAAAGCGCCAGAAGUACAGAAAUGUAGUUGACGAGGAGGAGGUUUAUCGAAUUUUCGGCGGUUGCCUUCAAA [C16G A64U C70U] | < 1e-05 | < 1e-05 | < 1e-05 |  |  | 
AUAAAAGCGCGAGAACUACAGAAAUGUAGUUGACGAGGAGGAGGUUUAUCGAAUUUUCGGAGGAUGCCUCCAAA [C11G C61A] | < 1e-05 | < 1e-05 |  |  |  | 
AUAAAAGUGCCAGAACUACAGAAAUGUAGUUGUCGAGGAGGAGGUUUAUCGAAUUUUCGGCGGAUGCCUCCAAA [C8U A33U] | < 1e-05 | < 1e-05 | < 1e-05 |  |  | 
AUAAAAGCGCCAGAAGUACAGAAAUGUAGUUGACGAGGAGGAGGUUUAUCGAAUUUUCGCCGGAUGCCUCCAAA [C16G G60C] | < 1e-05 |  |  |  |  | 
